The list shows a part of the results. At the low end of the ranking the order means little.

This test has as its target SIX1-Q177R homeodomain (UniProt Q15475). In words: universal protein binding microarray. The following applies: Universal all-10-mer PBM (8x60K, AMADID 030236), 300 nM GST-tagged protein, Alexa Fluor 488 anti-GST; buffer, salt, pH and temperature not stated; high values mean tight binding; most listed sequences are background and not binding sites; double strand, one strand shown.
Take ACGTAGAG: the binding signal is 0.156 E-score.

As for ACCACCCA, the binding signal was 0.0766 E-score.

Turning to AAGCATAC, the binding signal came to 0.0346 E-score.

In the case of AGCGTGGA, the binding signal is -0.183 E-score.

On to GTTTAATA, for which the binding signal was -0.085 E-score.

For the sequence ACTTGGCC, the binding signal was -0.111 E-score.

As to AAAGTATC, the binding signal is 0.0463 E-score.

For AACAAGTG, the binding signal worked out at 0.172 E-score.

As for GCCCAAAA, the binding signal is -0.126 E-score.

Take CCTGATGC: the binding signal is -0.0944 E-score.

For ACGCGGGG, the binding signal was found to be 0.208 E-score.

For the sequence ACTCATGG, the binding signal was determined as 0.0849 E-score.

For the sequence TCCGTGAA, the binding signal was -0.0156 E-score.

For the sequence TGACGGAA, the binding signal was -0.256 E-score.

With CGGTAACG, the binding signal was -0.0305 E-score.

Consider CATTAGAA, for which the binding signal was -0.0077 E-score.

On to AACGTGCG, for which the binding signal is -0.144 E-score.

For the sequence CGAAACAA, the binding signal was -0.127 E-score.

On to CCCATGAC, for which the binding signal is 0.083 E-score.

In the case of ACGATGCA, the binding signal was 0.0486 E-score.

For the sequence AAGTATGA, the binding signal was determined as 0.0202 E-score.

For the sequence ATCAGTTA, the binding signal is -0.0505 E-score.

Regarding GGGGGTTA, the binding signal worked out at 0.293 E-score.

For TAACCTTA, the binding signal is -0.06 E-score.

As for ACAATAAC, the binding signal was -0.0766 E-score.

For GGTGGGTA, the binding signal was 0.165 E-score.

As to GAATTCCC, the binding signal is -0.0586 E-score.

Consider AGCGCTGA, for which the binding signal is -0.133 E-score.

As for ATCGGGCA, the binding signal was determined as 0.195 E-score.

Take AATCGGTC: the binding signal was -0.072 E-score.

Regarding CTCATGGC, the binding signal was determined as 0.0288 E-score.

For the sequence GACCACAA, the binding signal is -0.232 E-score.

Take TCTCCTAA: the binding signal was -0.103 E-score.

As to AGACCTGC, the binding signal is -0.275 E-score.

With GGTGACAC, the binding signal was determined as 0.472 E-score.

On to CAATGATA, for which the binding signal worked out at 0.0206 E-score.

CACACATG: the binding signal came out at 0.165 E-score.

Consider AGAAGAGA, for which the binding signal was -0.084 E-score.

As to GGAATAGA, the binding signal was -0.0365 E-score.

With GAATTCAC, the binding signal is -0.253 E-score.

For GCCCGCAC, the binding signal is -0.0307 E-score.

As for AACACTTA, the binding signal stood at 0.328 E-score.

Turning to AAACCCAC, the binding signal turned out to be 0.134 E-score.

Turning to AGTAGGCA, the binding signal was -0.0338 E-score.

As to TACGCTGA, the binding signal amounted to 0.0181 E-score.

Take AACCCTCC: the binding signal turned out to be 0.121 E-score.

Consider CAACACAA, for which the binding signal is 0.182 E-score.

With CAGGCACC, the binding signal was 0.11 E-score.

In the case of ACGGAGCC, the binding signal is -0.144 E-score.

On to GTGTTCGA, for which the binding signal stood at 0.409 E-score.

Regarding CGAAGATC, the binding signal worked out at 0.000775 E-score.

With GCGTTTCC, the binding signal is 0.0472 E-score.

Turning to AGAAAATC, the binding signal was -0.331 E-score.

On to AGTGTGGG, for which the binding signal turned out to be 0.192 E-score.

For CAGAGTCA, the binding signal turned out to be 0.0842 E-score.

Regarding CACAACGC, the binding signal was -0.0501 E-score.

As for CAAGCGAG, the binding signal is -0.056 E-score.

As for TCACCACA, the binding signal was found to be 0.0745 E-score.

Regarding ATATGGTA, the binding signal was -0.0982 E-score.

For the sequence CATAGGGC, the binding signal was -0.139 E-score.

On to CAGGCAAG, for which the binding signal was -0.132 E-score.

ATTCCGGA: the binding signal was -0.111 E-score.

Turning to GTAGCAAC, the binding signal is -0.0606 E-score.

Regarding AGTCATAA, the binding signal was -0.0687 E-score.

With AGGCCTTA, the binding signal is -0.333 E-score.

As to AAGATCAG, the binding signal was -0.0381 E-score.

Regarding AATAAACG, the binding signal was -0.195 E-score.

Consider AGGATCAA, for which the binding signal turned out to be 0.118 E-score.

CGACTTCC: the binding signal is -0.227 E-score.

CAATAGCC: the binding signal was -0.0953 E-score.

With CGCCGAGA, the binding signal turned out to be 0.0922 E-score.

For ACAGGTAA, the binding signal is -0.142 E-score.

CTGAGAAG: the binding signal was -0.198 E-score.

In the case of CCGCCCGG, the binding signal was -0.0707 E-score.

In the case of CCGTTTAA, the binding signal is -0.0277 E-score.

For ACATGAGG, the binding signal is 0.0762 E-score.

GATGAGGC: the binding signal is -0.169 E-score.

As for GGTGTACA, the binding signal was 0.482 E-score.

As for CATTTTGA, the binding signal was -0.0786 E-score.

Turning to AGCAGTGA, the binding signal is -0.0608 E-score.

For CAGTCTTA, the binding signal is -0.0332 E-score.

Regarding GGAGCACC, the binding signal was found to be 0.268 E-score.

Regarding CCAAGCAA, the binding signal is -0.0273 E-score.

As for AAGATACA, the binding signal came out at 0.121 E-score.

On to GTATACGA, for which the binding signal came out at 0.0583 E-score.

For the sequence ACGACATA, the binding signal stood at 0.0484 E-score.

With CTTATGGA, the binding signal is -0.246 E-score.

For AGCGTCCT, the binding signal is 0.0386 E-score.

Consider ATTAGCGA, for which the binding signal came to 0.0318 E-score.

As for GCTTTAAC, the binding signal was -0.00128 E-score.

AATTTTAG: the binding signal is -0.218 E-score.

Consider AAAGTTTA, for which the binding signal was -0.0843 E-score.

For AGGTGGAC, the binding signal is -0.0742 E-score.

GGTGCTGA: the binding signal turned out to be 0.218 E-score.

On to CAGTTTAA, for which the binding signal was determined as 0.026 E-score.

Turning to ACAAAGGA, the binding signal was -0.00992 E-score.

For the sequence ATCAATGG, the binding signal is -0.00189 E-score.

Consider ACACATAG, for which the binding signal amounted to 0.155 E-score.

Consider AGACAGGA, for which the binding signal is -0.0794 E-score.

Take ATTCTCAA: the binding signal is -0.212 E-score.

Take AAGCAACA: the binding signal came out at 0.122 E-score.

As to CTGACTTA, the binding signal is -0.167 E-score.

As for ACACCGGG, the binding signal was determined as 0.484 E-score.

As for AGGTGGGG, the binding signal worked out at 0.12 E-score.

Turning to GCTTGCCC, the binding signal was -0.3 E-score.

With TGTCAAAA, the binding signal worked out at 0.198 E-score.

GGTTCTCA: the binding signal was found to be 0.00199 E-score.

As for CGGCCACC, the binding signal is -0.19 E-score.

On to CCTCAAAC, for which the binding signal was 0.0403 E-score.

For AGTTTCGG, the binding signal was -0.0993 E-score.

For ACCATAAG, the binding signal was 0.131 E-score.

For the sequence CTGTGCAA, the binding signal was -0.0723 E-score.

Regarding AGAAGAAA, the binding signal was -0.213 E-score.

For the sequence CTCAAGCC, the binding signal is -0.0506 E-score.

For TCAGTTCA, the binding signal is -0.0984 E-score.

With GGAGGTCA, the binding signal is -0.0808 E-score.

In the case of CAATCCTC, the binding signal is -0.146 E-score.

With CTAGGCCA, the binding signal is -0.217 E-score.

As for AGCTGGGC, the binding signal was -0.144 E-score.

With CCGTTGAG, the binding signal is -0.185 E-score.

Turning to AGATGCTC, the binding signal was -0.337 E-score.

For the sequence ACTGTCGG, the binding signal came to 0.0624 E-score.

For AATAAATG, the binding signal was -0.327 E-score.

Turning to CGTGAGAC, the binding signal is -0.038 E-score.

Regarding CCTCTTCG, the binding signal was -0.107 E-score.

As for AATGTTGG, the binding signal was -0.156 E-score.

Take ACCCTTCA: the binding signal is 0.166 E-score.

Regarding GAATTCGC, the binding signal was -0.15 E-score.

With CAGAATCC, the binding signal is -0.164 E-score.

Take AAGAAGTG: the binding signal came out at 0.181 E-score.

For CCATTAGA, the binding signal worked out at 0.008 E-score.

As for AACCGTAC, the binding signal was determined as 0.107 E-score.

On to GATACGTA, for which the binding signal was found to be 0.0647 E-score.

As to CCCATAGA, the binding signal is -0.0494 E-score.

As to ACGTGCAA, the binding signal was -0.127 E-score.

Take CCTGTAAC: the binding signal is -0.0219 E-score.

Take CATACCCC: the binding signal turned out to be 0.205 E-score.

ACAGCATA: the binding signal is -0.262 E-score.

Turning to ACAGATCT, the binding signal was -0.397 E-score.

ACTGTTAG: the binding signal is -0.137 E-score.

Regarding ACTGCTTA, the binding signal is -0.137 E-score.

Take TCTTCTCA: the binding signal was -0.135 E-score.

Consider TTCGCGAA, for which the binding signal came out at 0.034 E-score.

On to CGCCGATA, for which the binding signal stood at 0.0802 E-score.

Take ATTGAGCG: the binding signal is -0.137 E-score.

Turning to CAAGAGTC, the binding signal is -0.0267 E-score.

As for CCCCCGAG, the binding signal worked out at 0.188 E-score.

As for ATCTAGTG, the binding signal came to 0.232 E-score.

As to GGCTGATA, the binding signal was determined as 0.145 E-score.

Regarding ACATGGAA, the binding signal is -0.106 E-score.

Turning to ACTACCAT, the binding signal is -0.0374 E-score.

For the sequence CGCTTTAG, the binding signal is -0.0015 E-score.

For the sequence CTATAAAA, the binding signal was -0.183 E-score.

With CACTTATC, the binding signal came out at 0.0695 E-score.

For CACTTCAG, the binding signal was 0.106 E-score.

In the case of CCTGGCCC, the binding signal is -0.121 E-score.

Turning to GAAAGCCC, the binding signal was -0.08 E-score.

As to CGGTGAAG, the binding signal is -0.169 E-score.

In the case of ACTTTGCG, the binding signal amounted to 0.0268 E-score.

For AGCGGTTA, the binding signal was -0.215 E-score.

As to GATTGCCC, the binding signal was -0.237 E-score.

For the sequence AGAGCTCG, the binding signal is -0.133 E-score.

In the case of ATGTACTC, the binding signal was determined as 0.0779 E-score.

With CCTAACCA, the binding signal is 0.108 E-score.

In the case of GATAAGCC, the binding signal is -0.184 E-score.

Consider AAAATTCC, for which the binding signal was -0.1 E-score.

Regarding CCTGTCTC, the binding signal was -0.174 E-score.

In the case of GAGCAGGA, the binding signal is -0.0971 E-score.

For GCCTAGTA, the binding signal is -0.168 E-score.

Take ATATTCAA: the binding signal was -0.313 E-score.

For AGGTGAAC, the binding signal is -0.0908 E-score.

On to GACGTCAC, for which the binding signal is -0.0216 E-score.

Source of the values: paper PMC10668032.
